# In all, about 410,000 compounds went through this assay and about 490 (0.12%) were called active. The shares of active, inactive and inconclusive entries below differ from those in the screen. The call rests on the fitted dose curve; in most records, active means well fitted inhibition curve with a large enough effect; inconclusive means small, poorly fitted or top-dose-only effect; inactive means flat fitted curve, though single readings scatter. Potencies beside an inconclusive call are fits to weak or partial responses and may not hold up.
# Biological target: pyruvate kinase (Trypanosoma brucei) (UniProt Q57TT1)
# Test: qHTS of Trypanosoma Brucei Inhibitors; further: nearly all actives have a fitted effect of over 50% in size
# Conditions: TbPYK enzyme, Kinase-Glo Plus ATP luminescence, 45 min; series mostly up to 76.8 µM
# How it was run: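 Assay buffer: 50 mM TEA pH 7.2, 100 mM KCl, 10 mM MgCl2, 0.05% BSA, 0.01% Tween-20. Pyruvate kinase from T. brucei plus substrate met compound, then ADP (130 uM final). Luminescence was read post 45 min RT.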
# Potency means the concentration at half of the fitted maximal effect; tags describe the fitted curve by direction and shape.
row,SMILES,Potency
1,CC(C)c1ccc(OCC(=O)NCCO)cc1,inactive
2,CC1(C)O[C@@H]2[C@H](O1)[C@@H](COS(=O)(=O)O)O[C@H]2n1c(=S)[nH]c2c(=O)[nH]c(N)nc21,active: 35.5 µM
3,COc1ccc(C(=O)COC(=O)c2cccs2)cc1,"inconclusive: 25.1 µM [inhibitor, partial curve, poor fit]"
4,Clc1ccccc1-c1nnc2sc(-c3ccc4c(c3)OCO4)nn12,"inconclusive: 31.6 µM [inhibitor, partial curve]"
5,CCn1c(CNS(=O)(=O)c2ccc(Cl)cc2)n[nH]c1=S,"inconclusive: 44.7 µM [inhibitor, partial curve, poor fit]"
6,CCOC(=O)c1cccc(NC(=O)CCS(=O)(=O)c2ccc3c(c2)CC(=O)N3C)c1,inactive
7,CC(=O)Nc1cccc(NC(=O)CSc2ccc(-c3ccco3)nn2)c1,"inconclusive: 28.2 µM [inhibitor, single point]"
8,COc1cccc(C(=O)Nc2nc3nc(-c4ccccc4)cc(=O)n3[nH]2)c1,"inconclusive: 14.1 µM [inhibitor, partial curve, poor fit]"
9,COc1ccc(OCC(=O)NC(=S)NNC(=O)COc2ccc(Br)cc2Cl)cc1,"inconclusive: 28.2 µM [inhibitor, partial curve, poor fit]"
10,Cc1ccc(-c2n[nH]c(=S)n2/N=C/c2cccn2C)cc1,active: 5.01 µM
11,O=C(Nc1ccc(N2CCCCC2)cc1)c1ccccn1,"inconclusive: 25.1 µM [inhibitor, partial curve]"
12,COc1cccc(NC(=O)CCC2CCN(C(=O)c3cncs3)CC2)c1,"inconclusive: 35.5 µM [inhibitor, partial curve, poor fit]"
13,COc1cccc(/C=C/C(=O)OCC(=O)Nc2nnc(-c3ccccc3)o2)c1,inactive
14,COc1ccccc1CNC(=O)CCc1c(C)c2cc3c(C)c(C)oc3cc2oc1=O,inactive
15,Cc1c([N+](=O)[O-])cc(N2C(=O)C=CC2=O)cc1[N+](=O)[O-],active: 25.1 µM
16,COc1cc2c(cc1OC)CN(CC(=O)Nc1ccc(S(=O)(=O)N(C)C)cc1)CC2,"inconclusive: 1.58 µM [inhibitor, full curve]"
17,Cc1ccc(/C=C/C(=O)NCc2ccccn2)o1,"inconclusive: 39.8 µM [inhibitor, partial curve, poor fit]"
18,COc1ccccc1Nc1nc(NCC(C)C)nc(N)c1[N+](=O)[O-],inactive
19,Cc1ccccc1NS(=O)(=O)c1ccc2c(c1)CCC(=O)N2,inactive
20,Cc1ccc(N2CC(C(=O)Nc3nnc(SCCC4OCCO4)s3)CC2=O)cc1C (centres undefined),"inconclusive: 35.5 µM [inhibitor, partial curve, poor fit]"
21,COC(=O)COc1ccc(/C=C2\C(=O)NC(=S)N(c3ccc(C)cc3)C2=O)cc1OC,"inconclusive: 11.2 µM [inhibitor, partial curve]"
22,Cc1c(NC(=O)OC(C)C)sc(=S)n1C,inactive
23,Fc1ccc(C2=NNC(=NCc3ccccc3)SC2)cc1F,"inconclusive: 50.1 µM [inhibitor, single point]"

row,SMILES,Potency
1,CC(C)(C)c1ccc(-c2n[nH]c(=S)n2CC2CCCO2)cc1 (centres undefined),"inconclusive: 7.08 µM [inhibitor, partial curve]"
2,CCC1Sc2ccc(S(=O)(=O)CCC(=O)NCc3ccc(C)o3)cc2NC1=O (centres undefined),inactive
3,COCCN1CSC(=S)N(Cc2ccco2)C1,"inconclusive: 44.7 µM [inhibitor, single point]"
4,O=C(O)C(Cc1ccccc1)N1C(=O)C=CC1=O (centres undefined),"inconclusive: 28.2 µM [inhibitor, partial curve, poor fit]"
5,O=C(O)c1ccc(C(=O)Nc2ccc(F)cc2)cc1,inactive
6,S=C(c1ccc(-c2ccc(Cl)cc2Cl)o1)N1CCCC1,"inconclusive: 35.5 µM [inhibitor, partial curve, poor fit]"
7,C/C=C\C=C/C(=O)Nc1cccc(C2=NOC3(C2)C[C@@H](C(N)=O)N(C(=O)/C=C/C=C\C)C3)c1 (some centres undefined),"inconclusive: 31.6 µM [inhibitor, partial curve]"
8,CCOc1ccc(CC(=O)Nc2sc(Cc3ccccc3)cc2C(N)=O)cc1OCC,"inconclusive: 12.6 µM [inhibitor, partial curve, poor fit]"
9,O=C(O)c1ccc(N/N=C/c2ccc3nccnc3c2)cc1,"inconclusive: 22.4 µM [inhibitor, single point]"
10,CCOP(=O)(Cc1cc(C(C)=O)c(C)o1)OCC,"inconclusive: 17.8 µM [inhibitor, partial curve]"
11,O=C(Nc1ccccc1)N(Cc1cccs1)c1ccc(Cl)cc1,inactive
12,O=C1ON=C(c2ccc([N+](=O)[O-])cc2)/C1=C/c1ccccc1O,"inconclusive: 25.1 µM [inhibitor, partial curve]"
13,CSc1ccc(/C=C/c2nc3ccccc3n2S(=O)(=O)c2ccc(F)c(C)c2)cc1,"inconclusive: 31.6 µM [inhibitor, single point]"
14,O=C(O)c1cc(N2C(=O)C=CC2=O)cc(N2C(=O)C=CC2=O)c1,"inconclusive: 3.98 µM [inhibitor, full curve, poor fit]"
15,CCOc1ccc(/C=C2\CCc3ccccc3C2=O)cc1,"inconclusive: 28.2 µM [inhibitor, partial curve]"
16,COc1ccc(Br)cc1CN1CCN(C(=O)c2ccco2)CC1,inactive
17,Cc1cccc(N2C(=O)/C(=C/c3ccc(CN(CCC#N)S(C)(=O)=O)o3)C(=O)NC2=S)c1,"inconclusive: 14.1 µM [inhibitor, partial curve, poor fit]"
18,CSc1ncc(C(=O)N2CCN(c3ccc(Cl)cc3)CC2)c(C)n1,inactive
19,O=C(O)Cc1ccc2sc(-c3ccccc3)nc2c1,"inconclusive: 28.2 µM [inhibitor, partial curve]"
20,Cc1ccccc1C(=O)N1CCCCC1CCN1CCCCC1 (centres undefined),inactive
21,COc1ccc(Br)cc1C1CC(=O)N2CN(Cc3ccccc3)CSC2=C1C#N (centres undefined),"inconclusive: 2.24 µM [inhibitor, full curve, poor fit]"
22,CCOc1ccc(-n2c(-c3ccco3)n[nH]c2=S)cc1,"inconclusive: 5.62 µM [inhibitor, partial curve, poor fit]"
23,CCOc1cc(CNCCSc2nnnn2C)cc(Cl)c1OCc1ccc(Cl)cc1,inactive

row,SMILES,Potency
1,S=c1[nH]nc(-c2ccccn2)n1/N=C/c1ccc(Cl)cc1,"inconclusive: 3.98 µM [inhibitor, partial curve]"
2,O=[N+]([O-])c1ccc(-c2c[nH]c(=S)[nH]2)cc1,"inconclusive: 22.4 µM [inhibitor, partial curve, poor fit]"
3,CC(C)CNc1cc(NC2CCCCC2)c2c3c(onc13)-c1ccccc1C2=O,"inconclusive: 25.1 µM [inhibitor, partial curve, poor fit]"
4,COC(=O)c1sc2ccccc2c1S(=O)(=O)N1CCN(c2ccc(C(C)=O)cc2)CC1,"inconclusive: 5.01 µM [inhibitor, full curve]"
5,CS(=O)(=O)N1CCN(c2ccccc2NC(=O)c2ccc([N+](=O)[O-])o2)CC1,"inconclusive: 39.8 µM [inhibitor, partial curve, poor fit]"
6,O=C(N/N=C1\CCCc2ccccc21)c1cccc([N+](=O)[O-])c1,inactive
7,Cn1c(N=Nc2ccc(N3CCOCC3)cc2)[n+](C)c2ccccc21,"inconclusive: 14.1 µM [inhibitor, partial curve, poor fit]"
8,O=C1O[C@H]2[C@@H](OC(O)[C@@H]2O)[C@H]1O (some centres undefined),inactive
9,O=C1c2ccccc2C(=O)N1c1cccc(-c2nc3ccccc3o2)c1,inactive
10,Cc1ccccc1-n1cnnc1SCC(=O)N1CCN(c2ccccc2)CC1,"inconclusive: 15.8 µM [inhibitor, partial curve, poor fit]"
11,CCCCCCn1cc(CN2CC(N3CCN(CCO)CC3)CS2(=O)=O)nn1 (centres undefined),inactive
12,O=C(CN1C(=O)CC(c2ccco2)Sc2ccccc21)Nc1ccc(OC(F)(F)F)cc1 (centres undefined),inactive
13,COc1ccc(CNS(=O)(=O)CCNC(=O)c2ccc(OC)cc2)cc1,inactive
14,COc1ccccc1C(=O)N/C(=C/c1ccco1)C(=O)Nc1ccc(C(=O)O)cc1,"inconclusive: 39.8 µM [inhibitor, partial curve, poor fit]"
15,COc1ccc(-c2ccc(=O)n(CC(=O)Nc3ccc4c(c3)OCCO4)n2)cc1,"inconclusive: 7.08 µM [inhibitor, full curve]"
16,CCCCOCC(O)CCc1n[nH]c(=S)n1-c1ccccc1 (centres undefined),"inconclusive: 17.8 µM [inhibitor, partial curve]"
17,CC(=O)Cn1c(N2CCC(Cc3ccccc3)CC2)nc2c1c(=O)[nH]c(=O)n2C,"inconclusive: 50.1 µM [inhibitor, single point]"
18,O=[N+]([O-])c1ccc(C=NN2CCCCCC2)cc1,inactive
19,Cc1ccc(C(=O)O/N=C(\N)c2nonc2N)cc1,"inconclusive: 35.5 µM [inhibitor, single point]"
20,CN1C(=O)NC2(O)C(=O)c3ccccc3C12O (centres undefined),"inconclusive: 31.6 µM [inhibitor, partial curve]"
21,CCCCC1C(=O)N(c2ccccc2)N(c2ccc(O)cc2)C1=O (centres undefined),"inconclusive: 14.1 µM [inhibitor, partial curve, poor fit]"
22,CC(=NNC(=S)N(Cc1ccccn1)Cc1ccccn1)c1cnccn1,inactive
23,O=C1NC(=S)NC(=O)C1C/C=C/c1ccccc1,"inconclusive: 25.1 µM [inhibitor, partial curve]"
